Reference: paper PMC2963127, “Genotoxicity Revaluation of Three Commercial Nitroheterocyclic Drugs: Nifurtimox, Benznidazole, and Metronidazole” (Journal of Parasitology Research, 2009)
Read-outs that look alike come from different tables or passages of the source.

Key:
[1] = system: Salmonella typhimurium TA98NR; conditions: for Revertant/plate: TA98NR without S9
[2] = system: Salmonella typhimurium TA100NR; conditions: for Revertant/plate: TA100NR without S9

## O=[N+]([O-])c1ccc2c(c1)Cc1ccccc1-2 [2-NF, 2-nitrofluorene]
[1]; 15 μg/plate
  Revertant/plate: 19 ± 4

## O=C(Cn1ccnc1[N+](=O)[O-])NCc1ccccc1 [BNZ, N-benzyl-2-(2-nitroimidazol-1-yl)acetamide]
[2]; TA100NR -S9, 5 µg/plate
  Revertants: 247± 19
[2]; TA100NR -S9, 10 µg/plate
  Revertants: 249± 6
[2]; TA100NR -S9, 20 µg/plate
  Revertants: 233± 6
[2]; TA100NR -S9, 40 µg/plate
  Revertants: 318± 9
[2]; TA100NR -S9, 80 µg/plate
  Revertants: 343± 26
[1]; TA98NR -S9, 5 µg/plate
  Revertants: 24± 3
[1]; TA98NR -S9, 10 µg/plate
  Revertants: 28± 2
[1]; TA98NR -S9, 20 µg/plate
  Revertants: 23± 3
[1]; TA98NR -S9, 40 µg/plate
  Revertants: 24± 5
[1]; TA98NR -S9, 80 µg/plate
  Revertants: 27± 3
[1]; TA98NR -S9, 125 µg/plate
  Revertants: 30± 3
[1]; TA98NR -S9, 250 µg/plate
  Revertants: 46± 9
[1]; TA98NR -S9, 500 µg/plate
  Revertants: 54± 11

## NC(=O)C(=Cc1ccc([N+](=O)[O-])o1)c1ccco1 [FYFA, 2-(2-furyl)-3-(5-nitro-2-furyl)acrylamide]
[2]; 20 ng/plate
  Revertant/plate: 247 ± 34
[1]; 20 ng/plate
  Revertant/plate: 25 ± 4

## CCN(CC)CCNc1ccc(CO)c2sc3ccccc3c(=O)c12 [HYC, hycantone]
[2]; positive control 75 μg/plate
  Revertant/plate: 785 ± 97
[1]; positive control 75 μg/plate
  Revertant/plate: 833 ± 71
